# Assay results as given in PubChem BioAssay AID1508642 (National Center for Advancing Translational Sciences (NCATS), 2021).
# Among all 43,000 compounds or so, about 200 (0.47%) were called active. Roughly 12% stayed inconclusive and do not appear here. Calls come from the whole dose curve; as a rule, active = well fitted cell-killing curve with a large enough effect; inconclusive = small, poorly fitted or top-dose-only effect, or effect the other way; inactive = flat fitted curve, though single readings scatter. Some of the results follow.
# Assay: Cell viability qHTS assay in S16 Pmp22-F2sN cells; note: nearly all actives have a fitted effect of over 65% in size
# Details: S16 Pmp22-F2sN Schwann cells viability, CellTiter-Glo, 24 h; series mostly up to 57.5 µM; activity change, negative = cytotoxicity: at the top concentration
# Summary of the method: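 Viability was measured by CellTiter-Glo luminescence (15 min, room temperature). This followed 24 h at 37 °C of compound exposure (23 nL pin transfer) in S16 Pmp22-F2sN Schwann cells, 500-1,000 per well.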
# % is set by controls: 0 for no effect and ±100 for the full control effect.
row,Structure (SMILES),"activity change, negative = cytotoxicity"
1,CCC(C)NC(=O)c1ccc2nc(Cc3ccc(OC)cc3)oc2c1 (stereo unspecified),inactive: -0.571%
2,NS(=O)(=O)c1ccc(NC(=O)c2ccc3c(c2)CCN3S(=O)(=O)c2ccccc2)cc1,inactive: 0.822%
3,Cc1ccc(N(CC(=O)Nc2cc(C)cc(C)c2)S(=O)(=O)c2cccc3nonc23)cc1,inactive: -4.14%
4,CC1=C(c2ccc(C)cc2)S(=O)(=O)N(Cc2ccc(C(=O)Nc3ccc(F)cc3C)cc2)C1=O,inactive: -12.5%
5,Cc1c(Cl)cccc1NC(=O)CSc1ncccc1C(=O)Oc1ccccc1Cl,inactive: -2.52%
6,COC(=O)C(CCSC)NC(=O)c1c(C)oc2ncn(CC(C)C)c(=O)c12 (stereo unspecified),inactive: -29.4%
7,Cc1ccc(NC(=O)C(=O)NCC(c2cccnc2)N2CCN(C)CC2)cc1F (stereo unspecified),inactive: -5.23%
8,CCOCCSc1c(C)cnc2c1c(=O)n(C)c(=O)n2C,inactive: 0.375%
9,COc1cc2ccccc2cc1C(=O)Nc1ccc(Cl)c(-c2nc3ccccc3o2)c1,inactive: -23.2%
10,CCOc1ccc(NC(=O)Cn2ccn(-c3ccc(F)c(F)c3)c(=O)c2=O)cc1,inactive: 4.78%
11,COc1ccc(CNC(=O)c2cccc(-n3cnc4cccnc43)c2C)cc1,inactive: 7.7%
12,COc1cccc(C(=O)Nc2ccc(-c3cn4cccnc4n3)cc2)c1OC,inactive: 19.2%
13,O=C(Nc1ccc(F)cc1)[C@H](CSCc1ccccc1)N1Cc2ccccc2C1=O,inactive: 1.06%
14,Cc1ccc(N2CCN(C(=O)Cc3c(C(=O)O)c(C)cn3C)CC2)c(C)c1,inactive: -5.51%
15,Cc1ccc(S(=O)(=O)c2nnn3c2nc(N2CCN(c4ccc(F)cc4)CC2)c2cc(Cl)ccc23)cc1C,inactive: 2.28%
16,O=C(COC(=O)CCCC1=NS(=O)(=O)c2ccccc2N1)Nc1ccc(Br)cc1,inactive: -1.77%
17,CCOc1ccc(OCC)c(NC(=O)C2CCN(S(=O)(=O)c3ccc(Br)s3)CC2)c1,inactive: 3.38%
18,COc1ccc2nc(SCC(=O)c3c(C)[nH]c4ccccc34)nc(C)c2c1,inactive: 17.6%
19,CCc1ccc(NC(=O)CSc2nc3nccnc3c(=O)n2CCc2c[nH]c3ccccc23)cc1,inactive: 5.29%
20,CCc1ccc(NC(=O)C2CCN(C(=O)N3CC(CC)Oc4ccccc43)CC2)cc1 (stereo unspecified),inactive: -15%
21,COc1ccc(-c2nc(C)c(CCNC(=O)Cc3ccc(F)cc3)s2)cc1OC,inactive: 5.68%

row,Structure (SMILES),"activity change, negative = cytotoxicity"
1,COc1cccc(-n2c(=O)c3c(C)c(C(=O)N(C)C)sc3n(CC(=O)NCCc3ccc(OC)c(OC)c3)c2=O)c1,inactive: -6.02%
2,Cc1cccc(NC(=O)N2CCc3c(sc4c3CCCC4)C2c2ccc(F)cc2)c1 (stereo unspecified),inactive: -22.4%
3,CC(NC(=O)c1cc(Sc2ccc(F)cc2F)nc2ccccc12)c1ccccc1 (stereo unspecified),inactive: -10%
4,COc1cccc(NC(=O)CCNS(=O)(=O)c2ccc(Br)s2)c1,inactive: 0.184%
5,COc1ccc(CNC(=O)Cc2csc3ccccc23)cc1OC,inactive: 8.97%
6,CCc1nn(CC(=O)N2CCCCC2)c(=O)c2cc3sccc3n12,inactive: 2.92%
7,COc1ccc2nc(NC(=O)c3nc(SCc4ccc(F)cc4)ncc3Cl)sc2c1,inactive: 15.4%
8,Cc1cn2c(=O)c(S(=O)(=O)NCCc3ccccc3)c(C)nc2s1,inactive: 16%
9,CCOc1ccc(-c2nnc(SCC(=O)NCCC(C)C)nc2-c2ccc(OCC)c(OC)c2)cc1OC,inactive: -27.3%
10,Cc1ccc(N2C(=O)CSC23C(=O)N(CC(=O)NC2CCCCC2)c2ccccc23)cc1 (stereo unspecified),inactive: -0.871%
11,CC(C)OCCCNC(=O)c1ccc(-n2c(-c3ccccc3)cc3c2CCCC3)cc1,inactive: -4.78%
12,CC(C)CN1CCc2nc(N3CCN(c4ncccn4)CC3)ncc2C1,inactive: 12%
13,COc1cccc(C(=O)NCC(c2ccc(N(C)C)cc2)N2CCCC2)c1OC (stereo unspecified),inactive: -0.516%
14,COCc1cc(C)nc2sc3c(c12)NC(c1ccc(O)cc1)N(c1ccc(OC)cc1)C3=O (stereo unspecified),inactive: -5.41%
15,CCOc1ccc(NC(=O)C2Cc3ccccc3N2C(=O)c2ccccc2)cc1 (stereo unspecified),inactive: -7.04%
16,CCOc1ccc(-c2c(C)nn3c(C)c(C(=O)Nc4ccccc4C(=O)OC)cnc23)cc1OCC,inactive: -4.99%
17,COc1cc(Cn2c(=O)sc3ccccc32)ccc1OC(C)C,inactive: -25.7%
18,COc1ccccc1NC(=O)Cc1c(C(=O)O)[nH]c2ccc(Cl)cc12,inactive: -14.2%
19,Cc1ccc(-c2nc3cc(C(C)C)ccc3o2)cc1NC(=O)c1cccs1,inactive: 8.09%
20,COCCn1c(C)cc(O)c(C(c2ccccc2)N2CCN(C)CC2)c1=O (stereo unspecified),inactive: -10.2%
21,Cc1cccc(NC(=O)CSc2nc3ccc(NC(=O)c4ccco4)cc3s2)c1,inactive: 4.47%

row,Structure (SMILES),"activity change, negative = cytotoxicity"
1,CCCCOc1ccc(CNC(=O)C2CCN(c3nnc(-n4cccc4CNc4ccc(C)cc4)s3)CC2)cc1,inactive: -20.3%
2,Cc1cc2nc(-c3cc(NC(=O)c4cc5ccccc5o4)ccc3Cl)oc2cc1C,inactive: 27.4%
3,COc1cccc(C(=O)Nc2ccccc2OCc2cc(=O)n3cc(C)ccc3n2)c1,inactive: 3.58%
4,Cc1cc(NC(=O)C(C)C)cc(-c2nc3ncccc3o2)c1O,inactive: 1.78%
5,Cc1ccc2nc(-c3ccc(O)cc3)c(Nc3ccc4c(c3)OCO4)n2c1,inactive: -8.71%
6,CC(C)N(Cc1ccccc1)C(=O)CCS(=O)(=O)c1cc2c(cc1Cl)NC(=O)CO2,inactive: 3.19%
7,Cc1cc(C)n2nc(SCC(=O)Nc3ccccc3)nc2n1,inactive: 1.08%
8,N#Cc1c(NC(=O)c2cc3nc(-c4ccc(Br)cc4)cc(C(F)(F)F)n3n2)sc2c1CCCC2,inactive: 0.209%
9,O=C1CC(c2ccccc2C(F)(F)F)c2c(c3ccccc3[nH]c2=O)O1 (stereo unspecified),inactive: 5.58%
10,Cc1ccccc1OCc1nnc(SCc2cc(=O)c3ccccc3[nH]2)n1C,inactive: 0.242%
11,COc1ccc(N(CC(=O)NCCc2cccc(C)c2)S(=O)(=O)c2c(C)nn(C)c2C)cc1,inactive: 18.4%
12,COc1ccccc1N1CCN(C(CNC(=O)C(=O)NCCCN(C)C)c2cccnc2)CC1 (stereo unspecified),inactive: 0.478%
13,CCOC(=O)C1=C(CS(=O)(=O)c2c(C)cc(C)cc2C)NC(=O)NC1c1cccc(OC)c1 (stereo unspecified),inactive: -7.28%
14,COc1ccc(-n2c(=O)c3ccc(C(=O)NCc4ccc(C)cc4)cc3n(CC(=O)Nc3ccc(F)cc3)c2=O)cc1,inactive: 0.587%
15,Cc1ccc(NC(=O)c2oc3ccccc3c2NC(=O)c2cc3ccccc3o2)cc1,inactive: 5.37%
16,O=C(CSc1cn(CCNC(=O)c2c(F)cccc2F)c2ccccc12)Nc1ccc2c(c1)OCCO2,inactive: 27.5%
17,COC(=O)c1ccc(NC(=O)c2cc(S(=O)(=O)N3CCc4ccccc43)cn2C)cc1,inactive: 19.7%
18,CC(C)CC(NS(=O)(=O)c1ccc2c(c1)oc(=O)n2C)C(=O)NCCc1ccc(Cl)cc1 (stereo unspecified),inactive: -2.89%
19,Cc1cc(C)cc(NS(=O)(=O)c2ccc3[nH]cc(C(=O)N4CCCC4)c(=O)c3c2)c1,inactive: -7.54%
